Laboratory results: PubChem BioAssay AID1645887 (National Center for Advancing Translational Sciences (NCATS), 2021)
Values joined by “and” are separate entries in the source; they are usually repeats but may differ in a detail not shown here. Equal entries are not always repeated. The whole screen tested about 16,000 compounds, of which about 40 (0.2%) were called active. Another 1% or so got no clear call; they are omitted. The call rests on the fitted dose curve; in most records, active means well fitted activation curve with a large enough effect; inconclusive means small, poorly fitted or top-dose-only effect, or another doubt; inactive means no such curve, though single readings can be large or run the other way. The list shows a part of the results.

Target: Rap guanine nucleotide exchange factor 4 (Homo sapiens) (UniProt Q8WZA2)
Test: Validation qHTS for agonist of cAMP-regulated guanine nucleotide exchange factor 4 (EPAC2);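 further: exchange makes BODIPY-GDP fluorescence drop when released from Rap1B; series mostly up to about 150 µM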
Details: EPAC2 Rap1B BODIPY-GDP exchange, fluorescence; activation: active compounds read high
Summary of the method: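 Fluorescent exchange assay: 100 nM EPAC2 with 250 nM RAP1B-BODIPY-GDP and 50 uM GDP; compound added, 5 min at room temperature, then read (ex 480/em 540 nm) every 5 min for 30 min. Normalized to 6.5 mM cAMP agonist control.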
On the % scale 0 is the no-effect control and ±100 the full control effect.

Sequence of UniProt Q8WZA2 (Q8WZA2 whole entry, looked up): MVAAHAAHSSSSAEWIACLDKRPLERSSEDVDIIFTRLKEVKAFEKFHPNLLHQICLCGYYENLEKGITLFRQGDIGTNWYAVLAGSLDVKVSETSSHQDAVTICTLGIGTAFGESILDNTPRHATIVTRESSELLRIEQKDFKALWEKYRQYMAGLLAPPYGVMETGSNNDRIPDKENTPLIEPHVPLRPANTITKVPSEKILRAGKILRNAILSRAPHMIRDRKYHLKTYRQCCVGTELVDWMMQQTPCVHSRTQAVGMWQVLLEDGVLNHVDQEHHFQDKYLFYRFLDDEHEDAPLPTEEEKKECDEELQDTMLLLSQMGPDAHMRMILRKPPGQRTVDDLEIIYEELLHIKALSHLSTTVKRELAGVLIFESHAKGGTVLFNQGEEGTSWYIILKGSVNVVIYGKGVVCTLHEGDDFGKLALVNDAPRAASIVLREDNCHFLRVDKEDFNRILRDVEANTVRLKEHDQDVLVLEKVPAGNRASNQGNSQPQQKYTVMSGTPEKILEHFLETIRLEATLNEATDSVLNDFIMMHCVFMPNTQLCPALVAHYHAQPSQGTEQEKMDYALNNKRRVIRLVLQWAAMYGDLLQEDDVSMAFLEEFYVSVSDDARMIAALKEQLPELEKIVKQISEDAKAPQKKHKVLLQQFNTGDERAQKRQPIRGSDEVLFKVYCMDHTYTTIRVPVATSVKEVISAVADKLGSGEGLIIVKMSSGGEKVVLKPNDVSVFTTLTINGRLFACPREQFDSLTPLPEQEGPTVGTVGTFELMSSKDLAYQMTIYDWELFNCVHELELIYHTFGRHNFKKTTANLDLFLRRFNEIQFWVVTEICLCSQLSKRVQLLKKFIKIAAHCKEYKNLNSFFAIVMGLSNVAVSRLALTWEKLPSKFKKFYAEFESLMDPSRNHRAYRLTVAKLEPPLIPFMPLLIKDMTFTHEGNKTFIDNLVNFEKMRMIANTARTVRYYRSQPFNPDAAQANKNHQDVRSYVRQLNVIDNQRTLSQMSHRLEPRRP

activation, inactive:
CC(O)(COc1ccccc1)c1ccc2c(c1)CN(Cc1cccnc1)CCO2 (centres undefined) -12.7%
CCCCCCN(CCCCCC)C(=O)Cc1c(-c2ccc(F)cc2)[nH]c2ccccc12 4.82% and 12.7% and 15.6%
CCN(CC)CCNC(=O)c1ccc(NC(C)=O)cc1 -8.77% and -17%
Cc1noc(C)c1C(=O)N1CCC2(CCCN(Cc3nccs3)C2)CC1 -19%
N[C@@H](Cc1cnc[nH]1)C(=O)O -17.5% and -3.93%
Cc1cc(=O)c2c(O)c3c(O)cc(O)c4c5c(O)cc(O)c6c(O)c7c(=O)cc(C)c8c1c2c(c34)c(c65)c78 -2.22%
CN(C)c1ccc(C=O)cc1Cl -30.9%
Cc1c(C(=O)NCC(C)C)sc2ncnc(NCC3CCCO3)c12 (centres undefined) -2.12%
CO[C@H]1[C@H](NC(=O)c2ccncc2)c2ccccc2C12CCN(C(=O)c1ccoc1)CC2 -8.58%
CCC(=O)NS(=O)(=O)c1ccc(-c2c(-c3ccccc3)noc2C)cc1 -11.3%
COc1ccccc1C1CN(Cc2cccc(C)n2)Cc2ccccc2O1 (centres undefined) 5.88%
CC(=O)NCCNC(=O)c1cnn(-c2nccc(-c3cc(C)sc3C)n2)c1C -6.72%
CNC[C@H](O)c1cccc(O)c1 -33% and -17.1%
Cc1c(C(=O)NCCc2ccccn2)cnn1-c1nccc(-c2cccs2)n1 -17%
N=C(N)SCCc1cnc[nH]1 -18.2% and 9.87% and -3.01%
c1csc(CNc2ccnc(-c3ccoc3)n2)c1 -9.92%
CCCCCCCCCCCCN1[C@@H](CC(=O)OC)c2cc(F)ccc2S1(=O)=O -5.82%
C[C@]12CCC(=O)C=C1CC[C@H]1[C@@H]3CC[C@](O)(C(=O)CO)[C@@]3(C)C[C@H](O)[C@@]12F -0.956% and -3.33%
CSc1nc(N)c2ncn([C@H]3O[C@H](COP(=O)(O)OP(=O)(O)O)[C@@H](O)[C@@H]3O)c2n1 -0.485%
COc1cc(=O)n2c(c1C(=O)NC(C)c1ccco1)CCN(C(=O)c1cn3ccc(C)cc3n1)CC2 (centres undefined) -14.8%
COc1cccc(-c2ccc3ncnc(N4CCN(C)CC4)c3c2)c1 -0.97%
CCNc1ncc2nc(-c3ccc(OC)cc3)c(=O)n(C)c2n1 -0.156%
O=c1c(CCc2ccccc2)nc2cnc(N3CCOCC3)nc2n1C1CC1 -1.97%
CC(C)NC(=O)N1CCCC2(CCN(C(=O)c3ccco3)CC2)C1 -15.8%
CC(=O)NNC(=O)N1Cc2ccccc2Oc2ccc(Cl)cc21 -16.1% and -56.7%
COc1ccc(C(=O)N(O)c2ccccc2)cc1 -12%
COc1cccc(Cn2c(=O)c(-c3cc(F)cc(F)c3)nc3cnc(N4CCOCC4)nc32)c1 -2.68%
COc1cccc(-c2nc(NCc3ccccc3OC)c3ccccc3n2)c1 20.1%
O=C(O)C1CCC[C@@H]2[C@@H]3CC(CN12)[C@@H]1CCCCN1C3 (some centres undefined) -12.9%
O=C([C@@H]1C[C@@H](Sc2nc3ccccc3[nH]2)CN1CC1CCCCC1)N1CCOCC1 -18.2%
COc1ccc(NC(=O)N2CC[C@@]3(CCCN(S(C)(=O)=O)C3)C2)cc1 -25.7%
CCCCC[C@H](O)/C=C/[C@H]1C=CC(=O)[C@@H]1C/C=C\CCCC(=O)O 5.31%
CC(C)(CO)[C@@H](O)C(=O)NCCCO 9.04% and 8.2%
COc1ccc(NC(=O)N2CC[C@@]3(CCCN(C(C)=O)C3)C2)cc1 -4.5%
O=C(c1cc(C(F)(F)F)cc(C(F)(F)F)c1)N1CCC[C@@]2(CCN(c3ccccc3)C2)C1 -29.1%
C=C(C)C1CC[C@]2(CO)CC[C@@]3(C)[C@H](CCC4[C@@]5(C)CCC(O)C(C)(C)C5CC[C@@]43C)C12 (some centres undefined) -3.24%
CCOC(=O)[C@H](CCc1ccccc1)N[C@@H](C)C(=O)N1[C@H](C(=O)O)C[C@H]2CCCC[C@@H]21 2.41% and -5.79% and -10.4%
CCNc1ncc2nc(-c3cccs3)c(=O)n(C[C@H]3CCCO3)c2n1 -6.53%
CC[C@H]1CN2CCc3cc(OC)c(OC)cc3[C@@H]2C[C@@H]1C[C@H]1NCCc2cc(OC)c(OC)cc21 -29.3%
COc1cccc(-c2nc3cc(SC)ccc3cc2CN(C(=O)c2sccc2C)C2CC2)c1 -13.1%
FC(F)(F)c1cc(CN2CCCC3(CCNCC3)C2)cc(C(F)(F)F)c1 -39.3%
COc1cccc(-c2nc(NCc3cccnc3)c3ccccc3n2)c1 9.12%
Cc1ccc(-c2ccnc(-n3ncc(C(=O)NC[C@@H]4CCCN5CCCC[C@H]45)c3C3CC3)n2)o1 2.11%
CCc1cc(C(=O)NCCN2Cc3ccccc3OC(c3ccsc3)C2)n(C)n1 (centres undefined) -3.25%
C[N+](C)(CCCCCC[N+](C)(C)CCCN1C(=O)c2ccccc2C1=O)CCCN1C(=O)c2ccccc2C1=O -22% and 3.46%
CN(C)C(=O)c1ccc(-c2nc(Nc3ccc(F)cc3)c3ccccc3n2)cc1 -16.6%
COCCNc1nc(-c2c(C)noc2C)nc2ccccc12 -8.96%
COc1cccc(-c2cc3c(c(OC)c2)OCCN(Cc2ccccc2O)C3)n1 -25%
NNc1nnc(Cc2ccncc2)c2ccccc12 -16.2%
CC/C(=C(/CC)c1ccc(OP(=O)(O)O)cc1)c1ccc(OP(=O)(O)O)cc1 -1.97%
COc1ncc2nc(-c3ccc(F)cc3)c(=O)n(CCC#N)c2n1 -8.21%
C[C@H]1[C@@H](OC(=O)CCC(=O)O)O[C@@H]2OC3(C)CC[C@H]4[C@H](C)CC[C@@H]1[C@@]24OO3 -24.4%
CCCCCc1ccc(-c2cn(CCCOCc3ccccc3)nn2)cc1 -35%
CC(C)(O/N=C(\C(=O)N[C@@H]1C(=O)N2C(C(=O)[O-])=C(C[n+]3ccccc3)CS[C@H]12)c1csc(N)n1)C(=O)O -0.564%
C[C@@H](O)[C@H](N)C(=O)O -27.3%
O=C1[O][Bi][O]c2ccccc21 -12.6%
Cc1c(C(=O)N(C)C(C)C)sc2ncnc(NCCCN3CCOCC3)c12 -4.06%
Cc1ccc(/C(=C\CN2CCCC2)c2ccccn2)cc1 8.17% and 0.149% and -21.8%
COC(=O)c1cc(Br)ccc1N(Cc1cc(OC)cc(OC)c1)S(C)(=O)=O -46.1%
CN1CCCC2(CCN(C(=O)c3cnccn3)CC2)C1 5.61%
CN(Cc1cccc2ncccc12)C(=O)c1cnn(-c2ncc3c(n2)-c2ccccc2CC3)c1C1CC1 1.68%
COc1ccc(-n2c(=O)c(-c3cccc(Cl)c3)nc3cncnc32)cc1 2.94%
CN(C)c1ncc2nc(-c3ccccc3)c(=O)n(-c3ccccc3)c2n1 -5.96%
Cc1ncc2c(c1CNC(=O)c1ccc3c(c1)OCO3)CCN(C(=O)c1cn3ccccc3n1)C2 -2.93%
O=c1onc2n1-c1cc(Br)ccc1OC2 -19.5%
O=c1cnc2cnc(Nc3ccccc3)nc2n1CCc1ccccc1 -6.28%
COc1ccccc1C(=O)O[C@H]1[C@H](Cc2ccccc2)NS(=O)(=O)[C@H]2C[C@@H]3C=C[C@]12O3 -37.5%
C=C1Cc2c(Cl)cc3[nH]c4c5c3c2[C@@]2(O)[C@@H]1C[C@@H]2C(C)(C)O[C@H]5[C@@H]1CC[C@@]2(O)[C@@]35O[C@@H]3[C@@H](O)[C@@H](C(=O)O)O[C@H]5CC[C@]2(C)[C@@]41C -9.97%
CN(C)c1ccc(/C=C/c2ccc3cc(N(C)C)ccc3n2)cc1 0.661%
CCOC(=O)COc1ccc2c(C)c(CCN(CC)CC)c(=O)oc2c1Cl 10%
CC1=C(/C=C/C(C)=C/C=C/C(C)=C/C(=O)O)C(C)(C)CCC1O (centres undefined) -10.1%
O=S(=O)(c1ccccc1)N1CCC2(CCN(Cc3ccncc3)CC2)CC1 -3.04%
Cc1ncc(-c2ccc(F)cc2)c(C2CCCN(Cc3cccc(O)c3)C2)n1 (centres undefined) -4.98%
COc1ccc(C2CC(=O)c3ccc(OC)cc3O2)cc1 (centres undefined) -7.56%
OC[C@H]1O[C@@H](OCCc2ccc(O)cc2)[C@H](O)[C@@H](O)[C@@H]1O -19.7%
O=C(/C=C/c1ccc(O)c(O)c1)NC(=O)c1ccccc1O -13.9%
C[C@@H](O[C@H]1OCCN(Cc2n[nH]c(=O)[nH]2)[C@@H]1c1ccc(F)cc1)c1cc(C(F)(F)F)cc(C(F)(F)F)c1 -57.3%
Cc1c(O)cc(O)c2c(=O)c(-c3ccc(O)cc3)coc12 2.29%
CNCCC=C1c2ccccc2CCc2ccccc21 0.43% and -4.08% and -32.9%
